About 2,200 (0.71%) of roughly 310,000 compounds showed an effect of 50% or more. The effect is printed as a negative number. This is one part of the list.
target: human ether-à-go-go-related gene (hERG) potassium channel (human, UniProt Q12809); experiment: primary screen, population patch clamp on CHO cells stably expressing hERG
Sequence (Q12809 whole entry, looked up): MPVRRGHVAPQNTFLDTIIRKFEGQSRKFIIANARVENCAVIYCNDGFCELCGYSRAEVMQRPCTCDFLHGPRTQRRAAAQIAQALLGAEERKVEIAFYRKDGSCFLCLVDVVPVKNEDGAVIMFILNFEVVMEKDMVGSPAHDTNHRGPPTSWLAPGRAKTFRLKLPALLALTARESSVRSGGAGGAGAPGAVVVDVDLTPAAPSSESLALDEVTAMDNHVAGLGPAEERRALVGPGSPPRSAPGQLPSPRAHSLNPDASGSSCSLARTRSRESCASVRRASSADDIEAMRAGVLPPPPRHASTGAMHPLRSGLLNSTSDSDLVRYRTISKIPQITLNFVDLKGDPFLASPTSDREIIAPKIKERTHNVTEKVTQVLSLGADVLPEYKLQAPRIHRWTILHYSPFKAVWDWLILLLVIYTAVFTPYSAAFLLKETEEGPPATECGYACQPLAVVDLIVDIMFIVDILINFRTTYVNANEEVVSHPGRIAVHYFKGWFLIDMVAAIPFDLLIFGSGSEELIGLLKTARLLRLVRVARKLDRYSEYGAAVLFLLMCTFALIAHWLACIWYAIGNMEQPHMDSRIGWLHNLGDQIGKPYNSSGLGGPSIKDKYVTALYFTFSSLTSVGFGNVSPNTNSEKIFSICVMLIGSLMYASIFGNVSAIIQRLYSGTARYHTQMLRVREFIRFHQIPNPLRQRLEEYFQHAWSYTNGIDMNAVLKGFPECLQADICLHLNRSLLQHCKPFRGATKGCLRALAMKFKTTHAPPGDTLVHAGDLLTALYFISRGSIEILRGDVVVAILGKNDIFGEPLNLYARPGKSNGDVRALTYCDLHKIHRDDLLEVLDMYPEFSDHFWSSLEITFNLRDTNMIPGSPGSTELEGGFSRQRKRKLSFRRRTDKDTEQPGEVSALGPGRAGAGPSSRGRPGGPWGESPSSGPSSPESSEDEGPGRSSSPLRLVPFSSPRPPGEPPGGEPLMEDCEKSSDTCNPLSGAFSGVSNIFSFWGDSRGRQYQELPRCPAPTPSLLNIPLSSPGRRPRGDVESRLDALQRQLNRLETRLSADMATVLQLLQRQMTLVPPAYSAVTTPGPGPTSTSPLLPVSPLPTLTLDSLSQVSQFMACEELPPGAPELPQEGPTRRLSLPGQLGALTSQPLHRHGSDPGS

| SMILES | hERG current change (%, negative = inhibition) at 1uM [%] |
| --- | --- |
| CCc1nc2ccccc2c(=O)n1-c1cccc(OC)c1 | -5.11 |
| O=Cc1c(NCCN2CCCC2)c2ccccc2[nH]c1=O | 15.1 |
| O=c1c2ccccc2nc2n1CCCCC2 | 4.51 |
| CN1CCC(=NNC(=O)CN(c2ccccc2)S(=O)(=O)c2ccccc2)CC1 | 5.15 |
| COc1ccc(-c2cc(CCCC(=O)NCCc3ccccc3)no2)cc1 | 10.6 |
| COc1ccc([C@H]2CC(=O)C=C(c3cccc(F)c3OC)C2)cc1 | 11 |
| CC(C)c1ccc(OCC(=O)Nc2ccc(S(=O)(=O)Nc3ccccn3)cc2)cc1 | 14.7 |
| CCc1c(C)nc2ncnn2c1Nc1ccc(C(C)=O)cc1 | -17.9 |
| CC(=O)N=C1C=CC(=CN(O)C(C)(C)Cc2ccccc2)C=C1 | 7.98 |
| CC(C)(C)c1ccc(OCC(=O)Nc2ccncc2)cc1 | 20.5 |
| CCOC(=O)C1=C(C)NC(C)=C(C(=O)OCC)C1c1ccccc1/C=C/C(=O)OC(C)(C)C | 15.5 |
| CN(c1ccccc1)S(=O)(=O)c1cc(C(=O)N2CCN(c3ccccn3)CC2)ccc1Cl | 16.5 |
| COc1ccc(CNC(=O)CSc2nc3[nH]ncc3c(=O)n2-c2ccccc2Br)cc1 | 17.6 |
| C/C=C(/C)C(=O)Nc1cccc(C2=NOC3(C2)C[C@H](C(N)=O)N(C(=O)c2ccc(Cl)cc2)C3)c1 (some centres unmarked) | 1.62 |
| C=CCSc1nnc(NC(=O)c2ccc(Cl)nc2)s1 | 12.9 |
| CCN(CC)C(=O)Cn1cc(S(=O)(=O)CC(=O)Nc2ccccc2C)c2ccccc21 | 5.2 |
| COc1ccc(C(=O)N(Cc2nc(-c3ccc(C)cc3)no2)C(C)C)cc1OC | 4.05 |
| COc1ccc(NC2=C(Cl)C(=O)N(CCc3ccccc3)C2=O)cc1 | 0.884 |
| COc1ccc(CSc2ncn[nH]2)cc1[N+](=O)[O-] | 11.5 |
| CCCOc1cc(C)c(S(=O)(=O)N2CCN(C)CC2)cc1C | -2.54 |
| C(=C\CSc1nnnn1-c1ccccc1)/CSc1nnnn1-c1ccccc1 | 0.568 |
| CC(C)CCn1c(Sc2nc3ccccc3o2)nc2c1c(=O)[nH]c(=O)n2C | 4.1 |
| COC(=O)c1cc(OC)c(OC)cc1N | -0.911 |

| SMILES | hERG current change (%, negative = inhibition) at 1uM [%] |
| --- | --- |
| O=C(N/C(=C\c1ccco1)C(=O)N1CCOCC1)c1ccco1 | 15.9 |
| CCCOc1ccc(C(=O)OCCN(CC)CC)cc1N.Cl | -20.4 |
| COc1ccc(-c2cc3nnc(-c4ccccc4)nc3s2)cc1 | 15 |
| Cn1nccc1NS(=O)(=O)c1ccc(C(C)(C)C)cc1 | 17.5 |
| CC1CCN(C(=O)COC(=O)CCCN2C(=O)c3cccc4cccc(c34)C2=O)CC1 | 9.36 |
| COc1ccc(/C=C/C(=O)Nn2cnnc2)cc1 | 5.38 |
| NC(=O)c1c(NC(=O)c2ccccc2)sc2c1CCCC2 | 13.5 |
| O=C(c1cccc(F)c1)N1CCN=C1SCc1cccnc1 | 4.98 |
| Cc1ccc(S(=O)(=O)N2CCC(C(=O)OCc3ccc([N+](=O)[O-])cc3)CC2)cc1 | -1.48 |
| Cc1ccc(C)c(N(C(=O)CNC(=O)c2ccco2)C(C(=O)NCC2CCCO2)c2ccccc2)c1 (centres unmarked) | 8 |
| NC(=O)c1ccc(NC(=O)CCN=C2NS(=O)(=O)c3ccccc32)cc1 | 22 |
| CCOc1ccccc1NC(=O)CSc1nnnn1-c1ccccc1 | -0.231 |
| O=[N+]([O-])c1cc(C(F)(F)F)ccc1NCCNC(=S)Nc1ccc(Cl)cc1 | 9.59 |
| Cc1ccc(CN2CCN(Cc3cccc4c3OCO4)CC2CCO)cc1 (centres unmarked) | -16.1 |
| Cn1c(=O)oc2cc(S(=O)(=O)N3CCC(C(=O)NCCc4ccccc4)CC3)ccc21 | 5.13 |
| CCN1CCN(CC(=O)Nc2ccc(S(=O)(=O)N3C(C)CCCC3C)cc2)CC1 (centres unmarked) | 2.03 |
| C/C(CCc1ccccc1)=N/NC(=O)C(=O)NCc1ccccc1 | -0.221 |
| N#CCC(=O)N/N=C/c1cn(Cc2ccccc2C#N)c2ccccc12 | 17.1 |
| O=C(NNC(=O)C1CCN(c2ncccn2)CC1)c1ccccc1 | 2.04 |
| Cn1cccc1C(=O)NC(=O)COC(=O)CCNS(=O)(=O)c1cccc(C(F)(F)F)c1 | 8.49 |
| Cc1cc2c(cc1S(=O)(=O)CCC(=O)Nc1cccc(C(F)(F)F)c1)OCC(=O)N2 | -16.2 |
| Cc1ccc(NC(=S)N(CCCN2CCN(C)CC2)Cc2cccs2)cc1C | -6.58 |
| CCCC(=O)OCC(=O)Nc1ccc(OC(F)F)cc1 | 6.14 |

| SMILES | hERG current change (%, negative = inhibition) at 1uM [%] |
| --- | --- |
| CCOC(=O)C1=C(C)NC2=C(C(=O)CC(c3cccs3)C2)C1c1cccs1 (centres unmarked) | 4.64 |
| NNc1nnc2c3cc(F)ccc3n(CCc3ccccc3)c2n1 | 11.3 |
| COc1cccc(CCNC(=O)CCc2nnc(-c3cc(C)oc3C)o2)c1 | 4.89 |
| COc1ccc(NC(=O)CSc2nccn2C)c([N+](=O)[O-])c1 | 3.85 |
| Cc1cccc(NC(=O)CN2C(=O)S/C(=C\c3cccn3-c3cccc(C(=O)O)c3)C2=O)c1 | 5.99 |
| Cc1cc(C)n(-c2nc(Nc3ccccc3C)nc(-n3nc(C)cc3C)n2)n1 | 13.3 |
| CCCNC(=O)c1ccc2c(c1)C1C3CCC(C3)C1C(c1ccccc1)N2 (centres unmarked) | 9.15 |
| Cl.O=C(NCCCn1ccnc1)c1ccccc1F | 15.3 |
| CC(C)CN1C(=O)c2ccc(C(=O)Nc3ccccc3C(=O)O)cc2C1=O | 11.8 |
| CCCCCC(=O)C(=O)c1ccc(O)cc1O | 16.8 |
| OCCN1CCN(C(=S)c2ccc(-c3ccccc3)cc2)CC1 | 3.7 |
| COc1ccc(/C=N/n2c(C)cc(C)cc2=O)cc1 | 12.7 |
| CCn1c(=O)c(C(=O)NCc2ccccc2)c(O)c2ccccc21 | 14.1 |
| CCN1CN(Cc2ccco2)CNC1=S | 3.57 |
| Nc1c(C(=O)CSc2nnc(COc3ccc(Cl)cc3)o2)c(=O)[nH]c(=O)n1C1CC1 | 9.59 |
| CCN(CC)S(=O)(=O)c1cccc(NC(=O)COC(=O)/C=C/c2cccs2)c1 | 6.14 |
| CC(=O)N1CCN(C(=O)COc2ccc3oc4c(c3c2)CCCC4)CC1 | -10.6 |
| CCn1c(=O)c(C(=O)NCc2cccnc2)c(O)c2ccccc21 | 3.25 |
| CCn1c(SCC(=O)N2CCN(S(=O)(=O)c3ccccc3)CC2)nnc1-c1cccs1 | 3.85 |
| COCCN(CCOC)C(=O)N1CCOCC1 | 19 |
| COc1cc(OC)cc(C(=O)NCc2ccc3[nH]c(C)cc3c2)c1 | 11.1 |
| CC(=O)c1c(C)[nH]c(C(=O)NCCc2ccc(Cl)cc2)c1C | 9.56 |
| S=C(NCCc1ccc(Cl)cc1)NCc1ccco1 | 16.7 |

| SMILES | hERG current change (%, negative = inhibition) at 1uM [%] |
| --- | --- |
| COCc1cc(C)nc2sc(C(=O)Nc3ccccc3Br)c(N)c12 | 9.29 |
| N#CC1=C(N)SC(N)=C(C#N)C1c1c(Cl)cccc1Cl | 5.21 |
| O=C(CN1C(=O)c2cccc([N+](=O)[O-])c2C1=O)N1CCN(S(=O)(=O)c2ccccc2)CC1 | 6.35 |
| Cc1cc(C)c(OCCN2CCCC2)c(Cl)c1 | 1.2 |
| Cc1c(N=C/C=C/c2ccccc2)c(=O)n(-c2ccccc2)n1C | 12.9 |
| N#Cc1ccccc1-c1ccccc1C(=O)N1CCCCC1 | -3.76 |
| Cc1nc2cc(NC(=O)COc3ccc(C#N)cc3)ccc2n1-c1ccccc1 | -0.763 |
| CC(=O)Nc1cccc(NC(=O)c2ccccc2OCc2c(C)noc2C)c1 | 2.05 |
| CN(C)S(=O)(=O)c1cccc(NC(=O)CCc2c[nH]c3ccccc23)c1 | 0.382 |
| C=CCNC(=O)CC(=O)N/N=C/c1ccc(F)cc1 | 7.06 |
| CN(C)S(=O)(=O)Oc1ccccc1C(=O)Nc1ccc(F)cc1F | 10.1 |
| COc1ccc(C(=O)NCCS(=O)(=O)N2CCC3(CC2)OCCO3)cc1 | 1.46 |
| COc1ccc(-c2nnn3c2nc(NCc2ccccc2)c2ccccc23)cc1 | 9.97 |
| CCCCn1c(N)c(N(CCOC)C(=O)c2c(-c3ccccc3)noc2C)c(=O)[nH]c1=O | 13.3 |
| CCOC(=O)c1c(C)[nH]c(C(=O)CN2CC(C)OC(C)C2)c1C (centres unmarked) | 3.13 |
| CO/N=C(\N)c1nonc1N | 4.34 |
| O=C(CCN1C(=O)/C(=C\c2ccccc2F)SC1=S)Nc1ccc(C(=O)O)c(O)c1 | 8.73 |
| CCC(C)NC(=O)CC(c1ccccc1)c1cc(C)ccc1O (centres unmarked) | 5.59 |
| NC(=O)CSc1nnc(-c2cc(-c3cccs3)nc3ccccc23)o1 | 9.75 |
| CSCC(C)N1CCC(N2CCC(C(=O)NCc3ccccn3)CC2)CC1 (centres unmarked) | -0.769 |

Reference: paper PMC4336329 (PLoS ONE, 2015)
